Sequences with one replicate were seen in a single cluster, so their values are uncertain.
System: ATP
Test: switch fluorescence ratio, 500 uM ATP over buffer (Cy3 cluster intensity, sum of 5 cycles each) (fold (ratio)); higher = stronger signal-on switching upon ATP binding; sequences stand for … in TCGTCGGCAGCGTCAGATGTGTATAAGAGACAGTTTTTTTTTTTTTTTTTTTTTTTTT…TC
Details: aptamer strand: ATP DNA aptamer (quencher-CACCTGGGGGAGTATTGCGGAGGAAGG + anchor), 100 nM annealed; ATP concentration: 500 uM; one replicate
Procedure, shortened: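 Five buffer/ATP imaging cycles were run on Cy3-labelled switching-strand clusters on a modified Illumina MiSeq flow-cell, with NaOH stripping and re-annealing between cycles. In each cycle, clusters annealed to 100 nM quencher-labelled ATP aptamer were imaged in selection buffer, then after 15 min with 500 uM ATP at 22 °C. Per cluster, the fluorescence ratio is summed target-cycle over summed buffer-cycle Cy3 intensity, averaged per switch-domain sequence. Only clusters within 100-1000 RFU were kept.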
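Note: ATP exposure 15 min at 22 °C before imaging.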

| Sequence | switch fluorescence ratio |
| --- | --- |
| GATCGGGGAT | 1 |
| CATGGCACA | 0.994 |
| TTTGGTATTC | 1.05 |
| CTTAGGGCGC | 0.937 |
| TGTTGGAATT | 1.02 |
| TGTGCGGGGA | 1.08 |
| CCTGCCGCGG | 2.58 |
| TTCCGTGAAC | 2.03 |
| ATTAATAGGT | 0.993 |
| ATTTGTGTTG | 0.955 |
| TACTCCGCCG | 1.55 |
| TCGTCAAGA | 1.03 |
| CATGGCGGGC | 0.986 |
| CCATCATTGT | 0.991 |
| TGGTATTAAG | 1.03 |
| CCGTGGTATT | 1.16 |
| CTCTGATGT | 1.02 |
| TATGAGGGTC | 0.977 |
| GCCAAAGTGG | 1 |
| TTCTGGCA | 1.09 |
| TGCAATAGCT | 1.14 |
| ACTTAAGCGC | 1.08 |
| GCCCATCTAA | 0.963 |
| GACTAACTCA | 1.08 |
| TAGGTTTTGC | 0.996 |
| TGAGTCGGGT | 1.01 |

| Sequence | switch fluorescence ratio |
| --- | --- |
| ACGATGGTT | 0.995 |
| GGTATAGTCC | 1.02 |
| GCTAAAAATG | 0.986 |
| GTAGATAATC | 1 |
| CCCGGTATGG | 0.986 |
| GTACACACGA | 1.25 |
| GGGTCGGGTC | 1.02 |
| AATTACATT | 0.978 |
| GTGCAATTGC | 1 |
| ACATAAGTAT | 0.972 |
| ACTTGCAAAC | 5.52 |
| ATCAGAATGC | 1 |
| ATTAAGCTTT | 0.998 |
| AACAGTAACT | 1.08 |
| GCCCCTGGTA | 1.26 |
| TCTTCCTAAA | 1.03 |
| AGGTCCGTGA | 1.03 |
| ATCGAGATGC | 1.12 |
| CTGGTAGA | 0.969 |
| CGTGTAAGGT | 0.927 |
| ACGTAGGAAT | 1.02 |
| TGTTTAACCC | 1.01 |
| CGGGTAATGA | 0.989 |
| TTTCTGACTA | 1.06 |
| ATCCAGCCGG | 1.06 |
| ACGATTCCAG | 1.12 |

| Sequence | switch fluorescence ratio |
| --- | --- |
| TAATGTGAG | 1.01 |
| TTTGTGACCG | 1.07 |
| CAACAGCCAC | 1.23 |
| ATTTGCCATT | 1.02 |
| TTAACCGAAT | 1.05 |
| GTGAAGCACG | 1.01 |
| AAACCGATAT | 1.04 |
| GCTAGACCAG | 1.02 |
| TTGCTACGT | 1.04 |
| CAGCAACATT | 1.23 |
| AGCATATGTT | 1.03 |
| GCTTACCGAG | 1.01 |
| CCCTCCGGGT | 2.36 |
| AATAGGCA | 0.986 |
| GCCGCTAAGA | 1.24 |
| GCATGCGGCA | 1.05 |
| CGGAATGCGG | 1.06 |
| TGAACTGT | 0.968 |
| AATTGGTCGG | 1.03 |
| GTTACTTTGG | 0.984 |
| GGGTCCAGAC | 1.02 |
| TTCTGCGAAA | 1.01 |
| CATAATGAGC | 0.947 |
| TAAGCAGTAG | 1.42 |
| TTATCCGGTC | 0.947 |
| TGGTACTCTA | 1.03 |

| Sequence | switch fluorescence ratio |
| --- | --- |
| AAGGCAGGAG | 1.03 |
| GGTCCAACTT | 1.02 |
| AATAACCCTG | 0.993 |
| AGATTGGTAT | 1.01 |
| TTTCTTAGTA | 0.983 |
| AAAAGTCG | 1.09 |
| GGGTCAACTT | 0.991 |
| TCGGGTATTG | 1.11 |
| ACTGACCATA | 1.15 |
| ACAGGGGTA | 1.06 |
| AGTTAACACG | 0.992 |
| TTGTGGTTCA | 1.04 |
| CGGGTGCAGC | 0.99 |
| AACGTATTAG | 1.36 |
| GCTGATTG | 0.985 |
| TCAAATGGC | 0.975 |
| ATATAGCAAG | 1.06 |
| TTTTCTTCAT | 1.02 |
| GTGGCCCCAA | 1.02 |
| CCGTGCTGGA | 1.05 |
| ATCATAAGTC | 1.03 |
| CCACGGGTAA | 1.04 |
| CGGTTTCTA | 1.04 |
| TCGGTTGTAG | 0.99 |
| ACTACTGGGC | 1.12 |
| AATAATGGG | 1.02 |

| Sequence | switch fluorescence ratio |
| --- | --- |
| TAATGTCAAC | 0.986 |
| AAGATATACT | 1.04 |
| ATGGTTTACA | 0.984 |
| GGGAACAATA | 0.985 |
| GAGAGAAGGA | 0.97 |
| ACCCAGGTGA | 1.17 |
| AATTTGTCG | 1.11 |
| TAGATAGGTG | 1.06 |
| GAGTATTCAA | 1.02 |
| ACTTATAGAT | 1.02 |
| TTGAATTGAG | 0.951 |
| ACCGCGTAAG | 1.01 |
| CTCGGGCGCA | 1.04 |
| CCATTTCGCT | 1.07 |
| CATGATATGC | 1.04 |
| TACTCGTGAT | 1.03 |
| CCAGGGTTAT | 1.02 |
| CTCTATTTTG | 1.02 |
| GTTCTTTAAA | 0.982 |
| TTATAATAAA | 0.995 |
| ATAATCGTCT | 1.09 |
| ATCAAGACAT | 1.09 |
| GGATGAAAAT | 0.988 |
| GACGCGTAGC | 1.06 |
| GTCGCAATA | 2.66 |
| CCAATCAGAG | 0.924 |

| Sequence | switch fluorescence ratio |
| --- | --- |
| AAGATCCAGG | 1.09 |
| CACAGAGCAG | 1.12 |
| CTGGATACGG | 1.05 |
| TAGACTGCG | 0.978 |
| TACAGGACGC | 1.19 |
| CTTTTTATGC | 1.02 |
| GCCTGCTGTT | 1 |
| CAGTTTCTCA | 1.02 |
| TTGGGTCTTG | 0.977 |
| TACACTTAGA | 1.06 |
| AATTCTAGTT | 0.979 |
| AGTAAACTCT | 1.05 |
| ACATGTGTTA | 1.01 |
| CTTTGGCCC | 1.13 |
| TTTAGCGACC | 1.12 |
| CCCTTCGGTC | 1.11 |
| CTAAAAGTGG | 0.942 |
| ATGGATATTG | 0.966 |
| TTTTATCTCC | 1.01 |
| GCAGGACATG | 0.995 |
| TACAACTGCA | 1.08 |
| AAACAAGAGT | 0.983 |
| CCTAGTTGAC | 1.14 |
| TGGACAATTA | 1.05 |
| ACAGTTAACG | 0.972 |
| GACAGTGTCG | 1.04 |

| Sequence | switch fluorescence ratio |
| --- | --- |
| ACTGAGAGAT | 1.01 |
| GACACTTCA | 0.985 |
| CATGAACAAA | 1 |
| CGGGGCTCAG | 0.983 |
| CTGGATCGGG | 1.01 |
| GATGCACATG | 1.07 |
| GGGGATAGG | 0.984 |
| GGTCGCCAGT | 1 |
| CTGGCAAAGG | 0.995 |
| TCGAGAGCAA | 6.94 |
| CCTGGTTAGA | 1.02 |
| GGGCATGTGT | 0.954 |
| CTTGACCGC | 1.08 |
| ACACTCAATG | 1.02 |
| ATATGCAG | 1.01 |
| CAACGGGCAG | 1.02 |
| AGCACGGCCA | 1.05 |
| GTATCTGGTA | 0.991 |
| TATAGTCCTG | 1.01 |
| ACTTGCCGCT | 1.09 |
| ATGGTGAATA | 1.01 |
| TTCACCAGA | 1.06 |
| AATTCCAGGC | 0.887 |
| ACCCATTGCG | 1.03 |
| TTATTAGCCG | 0.969 |
| CGTTGAAGC | 0.983 |

| Sequence | switch fluorescence ratio |
| --- | --- |
| CGATCCAGGT | 1.81 |
| TGTGGGGTCC | 1.04 |
| AACCAACCAT | 1.08 |
| TCTGAAGAGG | 1.02 |
| CTGTGCTCGC | 1.06 |
| TTTGAGGAAA | 1.02 |
| TACGAAGACC | 1.08 |
| TATCGTGCCC | 0.944 |
| CGCATATTCT | 3.17 |
| GGCACCCCAT | 1.07 |
| AAGTTATCCT | 1.03 |
| TGGAGGTGC | 1.05 |
| ACTTGTGTAT | 0.979 |
| AGGCGAAACA | 1.03 |
| AAAGTGCACG | 1.03 |
| TAGTCGCCGC | 0.967 |
| ATGTATACGC | 1.05 |
| GGGTTCGGCT | 1.08 |
| GCGGAGATGA | 1.04 |
